In the supplement of paper PMC11417369:
Some of the results follow.

System: PF3D7_0420300 AP2 domain 1 (GST-tagged)
Experiment: gcPBM binding intensity (ln(normalized median fluorescence intensity)); higher = stronger DNA binding
How it was run: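 GST-tagged P. falciparum DNA-binding domains produced in E. coli were incubated for 1 h on an Agilent 4 × 180k array of primer-extended double-stranded 36-bp intergenic genomic probes with negative controls. Binding intensity is the highest Masliner-normalised natural-log median intensity across replicate spots of either probe orientation, with bound protein detected by Alexa488 anti-GST antibody at 488 nm.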

**Q.** Which “gcPBM binding intensity (ln)” value does the source give for “GTAGCAATAAACATATGTACATATATATATTTTTTC [XGTACX_site5814]” here?
**A.** Its value is 9.36.

**Q.** For “AAATCAACGATCTATACATGCATATAATATATACAT [TGCATGCA_site25]”, which “gcPBM binding intensity (ln)” value is on record?
**A.** The value was 9.24.

**Q.** For “TAATAATACCCTTGCTGTACCAAATAAAGTTGAATA [XGTACX_site6922]”, which “gcPBM binding intensity (ln)” value is on record?
**A.** Its value is 9.15.

**Q.** With “TTTCATAACAAAAAAGTGCAAAATAGCACGAACATT [GTGCAC_site9703]” as the sequence, how does the “gcPBM binding intensity (ln)” value read?
**A.** Its value is 9.38.

**Q.** “AAAAATTATATACATCATAGAATTAACATTTTAAAT [GTGCAC_negctrl_site369]” was tested. Which “gcPBM binding intensity (ln)” value did it give?
**A.** The value was 9.13.

**Q.** “AGAAAAAGGAGAAAAAGTACAAAACGGAGTAGTATT [XGTACX_site3858]” was tested. Which “gcPBM binding intensity (ln)” value did it give?
**A.** The value was 9.74.

**Q.** How did the “gcPBM binding intensity (ln)” value turn out when “AAAAAAAAAAAGTTTACACACATTAATTTTACATAT [CACACA_site834]” was run?
**A.** The value was 9.53.

**Q.** With “AAAAAAATACCATTCACACATATTCTTTTATTATTT [CACACA_site5113]” as the sequence, how does the “gcPBM binding intensity (ln)” value read?
**A.** Its value is 9.25.

**Q.** For “TATTATTGCATATTTACACACGTACTAATTTAAACA [CACACA_site970]”, which “gcPBM binding intensity (ln)” value is on record?
**A.** Its value is 9.55.

**Q.** Which “gcPBM binding intensity (ln)” value does the source give for “TTTTTCTATAAAAAAAAAAAAAAAAAATATATATAT [TGCATGCA_negctrl_site535]” here?
**A.** The value was 8.86.

**Q.** For “TTGTATATTTTATGTACACACAATAAGTTAATATAA [CACACA_site4655]”, which “gcPBM binding intensity (ln)” value is on record?
**A.** Its value is 9.31.

**Q.** Which “gcPBM binding intensity (ln)” value does the source give for “AAAATAATGTATATATGTACATATAAATATATATAT [XGTACX_site8081]” here?
**A.** The value was 9.4.

**Q.** How did the “gcPBM binding intensity (ln)” value turn out when “ATAAAAGGAAGAAAATGTACATATAATTATATGCAT [XGTACX_site8421]” was run?
**A.** Its value is 9.44.

**Q.** Which “gcPBM binding intensity (ln)” value does the source give for “TGTATACTATTAAATTGTACACATAAGAAATATTAT [XGTACX_site5839]” here?
**A.** Its value is 9.14.

**Q.** Which “gcPBM binding intensity (ln)” value does the source give for “TTTTACAAATATAATGGGTGAGCTATCAAAATAAAT [GTGCAC_negctrl_site91]” here?
**A.** Its value is 9.31.

**Q.** How did the “gcPBM binding intensity (ln)” value turn out when “TATATATATATATATATAATACGAATTTGTAGTACA [TGCATGCA_negctrl_site224]” was run?
**A.** The value was 9.27.

**Q.** With “ATGTTTTTAAAAAATTGTACATAATATTTTTTATAA [XGTACX_site7692]” as the sequence, how does the “gcPBM binding intensity (ln)” value read?
**A.** The value was 9.01.

**Q.** For “ATAAAAATCATGTTGGTGCGAAATTTTATTATCAGA [GTGCAC_site9735]”, which “gcPBM binding intensity (ln)” value is on record?
**A.** The value was 9.17.

**Q.** With “ATATTAATTCGTTTTGTACACACATAATGAATAATT [CACACA_site8701]” as the sequence, how does the “gcPBM binding intensity (ln)” value read?
**A.** The value was 9.44.

**Q.** How did the “gcPBM binding intensity (ln)” value turn out when “AATTATTTACCCTATACACACAAAACAGACTAAAAA [CACACA_site6688]” was run?
**A.** The value was 9.74.

**Q.** How did the “gcPBM binding intensity (ln)” value turn out when “AAGGTATGATTAATCACACACATAAATATATATACA [CACACA_site2658]” was run?
**A.** Its value is 9.65.

**Q.** Which “gcPBM binding intensity (ln)” value does the source give for “TTATGTATAAACACACGTACACACACTAAGTATATC [XGTACX_site3254]” here?
**A.** Its value is 9.74.

**Q.** Which “gcPBM binding intensity (ln)” value does the source give for “TTTAAAAAGATATATACACACATATAAATAAATATA [CACACA_site6436]” here?
**A.** Its value is 9.34.

**Q.** For “ACACATACACATTAGGTGCATATATTTCAATATTAC [GTGCAC_site9423]”, which “gcPBM binding intensity (ln)” value is on record?
**A.** Its value is 9.43.

**Q.** “AGCCTCGGGGTCATATATATATATATATATATATAT [CACACA_negctrl_site512]” was tested. Which “gcPBM binding intensity (ln)” value did it give?
**A.** Its value is 9.27.

**Q.** “CCACGTATAATATGTACACACACATATATACAAAAA [CACACA_site8208]” was tested. Which “gcPBM binding intensity (ln)” value did it give?
**A.** The value was 9.79.

**Q.** For “ATTATATTTTTAAGTACACACATATATATATATATA [CACACA_site5925]”, which “gcPBM binding intensity (ln)” value is on record?
**A.** The value was 9.46.

**Q.** For “TTTTTTTTGTGGTGTCGTACATATGTTTGTTTTAAG [XGTACX_site1759]”, which “gcPBM binding intensity (ln)” value is on record?
**A.** The value was 9.66.

**Q.** Which “gcPBM binding intensity (ln)” value does the source give for “ACATATATATATATATATATATATATATAATATTTA [CACACA_negctrl_site633]” here?
**A.** Its value is 8.9.

**Q.** How did the “gcPBM binding intensity (ln)” value turn out when “ATTATGCTACAAGGAGAACACACAATTGCCACTTTT [CACACA_site8673]” was run?
**A.** The value was 9.45.

**Q.** For CCACGAGAATATATAGTGCATAATAATTTTTTTTTG, which “gcPBM binding intensity (ln)” value is on record?
**A.** Its value is 9.09.

**Q.** “GGTGATAATAAGCATACACACACACCCAAAAAAAAA [CACACA_site8137]” was tested. Which “gcPBM binding intensity (ln)” value did it give?
**A.** The value was 9.73.

**Q.** “AAAAAAAAAAAGAAAGCACACAATACATATGTATAA [CACACA_site1137]” was tested. Which “gcPBM binding intensity (ln)” value did it give?
**A.** The value was 9.44.

**Q.** With “ATATATATCAGACACACACACATGTTTTAAAACTAT [CACACA_site77]” as the sequence, how does the “gcPBM binding intensity (ln)” value read?
**A.** The value was 9.92.

**Q.** Which “gcPBM binding intensity (ln)” value does the source give for “TAAATTTTTAAATACACACATACACCCATACAGACA [CACACA_site548]” here?
**A.** Its value is 9.76.

**Q.** How did the “gcPBM binding intensity (ln)” value turn out when “TTATTTTAATAACCTACACACATTTTGTATATTTTA [CACACA_site4000]” was run?
**A.** The value was 9.63.

**Q.** With “AAATGATGGAAAAAATAAATTTTTGTACAAAAATTA [CACACA_negctrl_site814]” as the sequence, how does the “gcPBM binding intensity (ln)” value read?
**A.** The value was 9.05.

**Q.** How did the “gcPBM binding intensity (ln)” value turn out when “TTATAAATATTCTTGGGTACTTAAGATGATATGTAA [XGTACX_site5496]” was run?
**A.** The value was 8.91.

**Q.** TAATAAAATATGTACGTGCACATAATTATACTAAAA was tested. Which “gcPBM binding intensity (ln)” value did it give?
**A.** Its value is 9.26.

**Q.** “TTTTTTTTATTTTAATGTACATTTTTTATTTGTTAT [XGTACX_site7189]” was tested. Which “gcPBM binding intensity (ln)” value did it give?
**A.** Its value is 9.46.

**Q.** For “TGATACTTTTTTTGTAGTACTCCTAAAATTATAAAA [XGTACX_site4340]”, which “gcPBM binding intensity (ln)” value is on record?
**A.** Its value is 8.93.

**Q.** How did the “gcPBM binding intensity (ln)” value turn out when “ATATATATATTATTTCGTACATAATTATTTGCCTTA [XGTACX_site350]” was run?
**A.** Its value is 9.31.

**Q.** “AAAAAAAAAAAAAATTGTACAAAAAAAATAAATAAA [XGTACX_site6816]” was tested. Which “gcPBM binding intensity (ln)” value did it give?
**A.** Its value is 9.29.

**Q.** How did the “gcPBM binding intensity (ln)” value turn out when “AAAAAAAAAAAAGAAACACACATATTTATATTTATA [CACACA_site6213]” was run?
**A.** The value was 9.32.
